Residue numbers refer to the chain shown, from its start. The list shows a part of the results.
T1: RBFOX1 RRM RbFoxmut (Fox-RRM*) (Homo sapiens, UniProt Q9NWB1 109-208, R118D;E147R;N151S;E152T)
T1 sequence: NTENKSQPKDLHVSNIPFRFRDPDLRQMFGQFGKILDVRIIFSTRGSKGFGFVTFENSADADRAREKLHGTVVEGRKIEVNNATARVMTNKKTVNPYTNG

B1: GUGGCUC (DNA:RNA)
RNA: GGGAGACCGGAAUUCAGAUUGUCCGUGGCUCUUAAAUCCCGUCGUAGCCACCA
DNA 1: CAATCTGAATTCCGGTCTCCC
DNA 2: TGGTGGCTACGACGGGATT
B2: CUGGUAG (DNA:RNA)
RNA: B1 RNA with G25C, C29U, U30A, C31G
DNA 1: CAATCTGAATTCCGGTCTCCC
DNA 2: TGGTGGCTACGACGGGATT
B3: AAAUUCG (DNA:RNA)
RNA: GGGAGACCGGAAUUCAGAUUGUCCAAAUUCGUUAAAUCCCGUCGUAGCCACCA
DNA 1: CAATCTGAATTCCGGTCTCCC
DNA 2: TGGTGGCTACGACGGGATT
B4: AUCUGCU (DNA:RNA)
RNA: B3 RNA with A26U, A27C, U29G, G31U
DNA 1: CAATCTGAATTCCGGTCTCCC
DNA 2: TGGTGGCTACGACGGGATT
B5: CGGAGUA (DNA:RNA)
RNA: B1 RNA with G25C, U26G, G28A, C29G, C31A
DNA 1: CAATCTGAATTCCGGTCTCCC
DNA 2: TGGTGGCTACGACGGGATT
B6: GCCUAGA (DNA:RNA)
RNA: B3 RNA with A25G, A26C, A27C, U29A, C30G, G31A
DNA 1: CAATCTGAATTCCGGTCTCCC
DNA 2: TGGTGGCTACGACGGGATT
B7: UAUUCUA (DNA:RNA)
RNA: B3 RNA with A25U, A27U, U29C, C30U, G31A
DNA 1: CAATCTGAATTCCGGTCTCCC
DNA 2: TGGTGGCTACGACGGGATT
B8: AGCUAUU (DNA:RNA)
RNA: B3 RNA with A26G, A27C, U29A, C30U, G31U
DNA 1: CAATCTGAATTCCGGTCTCCC
DNA 2: TGGTGGCTACGACGGGATT
B9: UUCAUAG (DNA:RNA)
RNA: B3 RNA with A25U, A26U, A27C, U28A, C30A
DNA 1: CAATCTGAATTCCGGTCTCCC
DNA 2: TGGTGGCTACGACGGGATT

These binders were tested against T1, RBFOX1 RRM RbFoxmut (Fox-RRM*) (assay: EMSA; HiTS-Eq, 1 nM pool, 10 min; buffer printed only for the single-RNA assays: 10 mM Tris pH 7.5, 150 mM NaCl, 3.4 mM EDTA, 0.001% NP-40, 30 C). Conditions: tags: His6 N-terminal (pET28a); label: 5' 32P.
Outline: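 These values rest on relative association constants, computed from read-count changes of each RNA species versus the control reaction and normalised to the cognate motif. Reads came from free RNA recovered by 8% native PAGE after purified RbFox RRM (wild type or mutant) at increasing concentrations was equilibrated for 10 min in 50 µL with 1 nM of a 5′-radiolabelled pool with 7 randomized nucleotides and DNA-annealed flanks.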
With B1 the binding signal was 0.125 KA relative to UGCAUGU. B2 was tested, and the binding signal was 0.119 KA relative to UGCAUGU. For B3, the binding signal was 0.0824 KA relative to UGCAUGU. B4 was tested, and the binding signal was 0.0892 KA relative to UGCAUGU. In the case of B5, the binding signal is reported as 0.146 KA relative to UGCAUGU. With B6 the binding signal was 0.11 KA relative to UGCAUGU. In the case of B7, the binding signal is reported as 0.0906 KA relative to UGCAUGU. B8 was tested, and the binding signal was 0.0983 KA relative to UGCAUGU. For B9, the binding signal was 0.111 KA relative to UGCAUGU.

— PMC9911399, “Two distinct binding modes provide the RNA-binding protein RbFox with extraordinary sequence specificity”
